From PubChem BioAssay AID2060894 (Molecular Pharmacology Branch, DTP, NCI, 2025)
Some entries of the source have several records that differ or are many. This list holds those alone. There may be further records. The values listed for one entry are repeated measurements across runs, samples, wells, individuals or studies. Marks such as [2022-09] give the month of the run. Signs of the kind (2×) say how often a value occurs here.

Test system: K12877-001-R-J1-PDC complex spheroid viability
Assay: Anticancer human tumor K12877-001-R-J1-PDC patient-derived lung adenocarcinoma cell line growth inhibition [RAS]
Conditions: for viability, T/C: stronger effect = lower value; for IC50: compound alone
Source text: RAS pathway inhibitors in Combinations in Complex Spheroids
A high-throughput screen of multi-cell type tumor spheroids was designed to identify active combinations of RAS pathway inhibitors and targeted small molecules. Complex spheroids include a stromal component modeled by human endothelial cells (HUVEC) and fibroblasts modeled by human mesenchymal stem cells (MSCs). The concentration ranges selected for each drug and investigational agent were based upon clinically achievable concentrations if the clinical Cmax of the agent was known.
Compounds. The drugs and investigational agents: abemaciclib (NSC768073), cobimetinib (NSC768068), divarasib (GDC6063, NSC841802), docetaxel (NSC628503), GDC-1971 (RLY-1971, NSC841576), gemcitabine (NSC613327), inavolisib (NSC800729), ipatasertib (NSC767898), KB-0742 (NSC834161), MRTX-1133 (NSC836407), osimertinib (NSC779217), RMC-4630 (NSC839698), RMC-6236 (NSC851965), RMC-6291 (NSC852671), Ro-3306 (NSC812927), sapanisertib (NSC764658), SN-38 (NSC673596), staurosporine (NSC755774), SY5609 (NSC837396), and tovorafenib (DAY101, NSC766906), were obtained from the National Cancer Institute (NCI) Developmental Therapeutics Program Chemical Repository. The FDA-approved anticancer drug set is available from the NCI Developmental Therapeutics Program. […] The stock solutions were prepared in dimethyl sulfoxide (DMSO, Sigma-Aldrich, St. Louis, MO, cat. D2650) at 800-fold the tested concentration and stored at -70 degrees C prior to their use. All drugs and investigational agents were tested over a range starting from a high concentration at or near the clinical Cmax and decreasing in half-log increments. If the clinical Cmax for an agent had not been determined, the highest concentration tested was 10 microM.
Cell Culture. All cells were maintained in an incubator at 37 degrees C and 5% CO2 with 95% humidity. The PDC lines were cultured according to standard operating procedures established by the NCI PDMR. All PDCs were thawed and cultured in Matrigel-coated flasks prepared with a working solution of 1X Ham's F-12 nutrient mix, without supplementation (Invitrogen, Waltham, MA, cat. 11765054), 100 U/mL penicillin-streptomycin (Invitrogen, cat. 15140122), and 2.5% Matrigel (Corning Inc., Corning, NY, cat. 354248) for the first three passages. The 362531-283-R-J2-PDC and 782815-120-R-J1-PDC lines were cultured in 6C/Colon 1B media, which includes advanced DMEM/F-12 (Thermo Fisher Scientific, cat. 12634028), 10 mM HEPES (Thermo Fisher Scientific, cat. 15630080), 1X GlutaMAX supplement (Thermo Fisher Scientific, cat. 35050061), 0.1 mg/mL primocin (InvivoGen, San Diego, CA, cat. ant-pm-2), 10% defined fetal bovine serum, heat inactivated (HyClone Laboratories Inc., Logan, UT, cat. SH30070.03HI), 50% L-WRN conditioned media (ATCC, cat. CRL-3276), 1.25 mM N-Acetyl-L-cysteine (Sigma-Aldrich, cat. A9165), 10 mM nicotinamide (Sigma-Aldrich, cat. N0636), 1X B-27 supplement (Thermo Fisher Scientific, cat. 17504044), 1X N-2 supplement (Thermo Fisher Scientific, cat. 17502048), 50 ng/mL human EGF (Thermo Fisher Scientific, cat. PHG0311), and 10 microM Y-27632 dihydrochloride (Tocris Bioscience, cat. 1254). The K12877-001-R-J1-PDC line was cultured in 6I media, which includes all 6C/Colon 1B media plus 10 ng/mL human FGF-10 (PeproTech, cat. 100-26), 1 ng/mL human FGF-2 (PeproTech, cat. 100-18B), 1 µM prostaglandin E2 (Tocris Bioscience, cat. 2296), […] hydrocortisone (Sigma-Aldrich, cat. H4001), and […] bovine insulin (Sigma-Aldrich, cat. I6634). The K86415-001-R-J1-PDC line was cultured in 6D media, which includes all 6C/Colon 1B media components minus the L-WRN conditioned media. The 485176-168-R4-J1-PDC was cultured in PANC media, which includes all 6C/Colon 1B media plus 100 ng/mL human FGF-10 (PeproTech, cat. 100-26), 500 nM SB-431542 (Selleckchem, cat. S1067), and 10 nM gastrin (Tocris Bioscience, cat. 3006). […]
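Further: spheroids exposed to agents for one week before readout.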

## CC(C)n1nc(-c2ccc3oc(N)nc3c2)c2c(N)ncnc21
Compound alone 0.001 µM
  viability, T/C: 83.7%, 114% [2024-08] and 86.2%, 94.4% [2024-09]
Compound alone 0.01 µM
  viability, T/C: 98.5%, 113% [2024-08] and 85.5%, 78.2% [2024-09]

## CC1(C)CCC(Nc2ncc(C(F)(F)F)c(-c3c[nH]c4c(P(C)(C)=O)c(C#N)ccc34)n2)CN1 (stereo not given)
Compound alone 0.003 µM
  viability, T/C: 81.2%, 109% [2024-08] and 90.6%, 95.8% [2024-09]
Compound alone 0.00949 µM
  viability, T/C: 66.8%, 115% [2024-08] and 99.2%, 81.2% [2024-09]

## NC1c2ccccc2OC12CCN(c1cnc3c(N4CCCc5ncccc54)n[nH]c3n1)CC2 (stereo not given)
Compound alone 0.316 µM
  viability, T/C: 91%, 63.4% [2024-08] and 94.4%, 92.8% [2024-09]
Compound alone 1 µM
  viability, T/C: 75.2%, 58.5% [2024-08] and 90.9%, 86.3% [2024-09]
Compound alone 3.16 µM
  viability, T/C: 75.4%, 56.2% [2024-08] and 83.9%, 81.6% [2024-09]

## C=CC(=O)N1CCN(c2nc(OCC3CCCN3C)nc3c(F)c(-c4nc(N)cc(C)c4C(F)(F)F)c(Cl)cc23)C(C)C1 (stereo not given)
Compound alone 0.01 µM
  viability, T/C: 82.2%, 73.7% [2024-08] and 84.7, 105, 92.4, 91.5, 101, 96.2, 96.6, 102 (2×), 88.8% [2024-09]
Compound alone 0.0316 µM
  viability, T/C: 76.7%, 75.4% [2024-08] and 77.2, 83, 82.4, 88.5, 88.8, 94.7, 97.5, 101, 100, 75.8% [2024-09]
Compound alone 1 µM
  viability, T/C: 75.3%, 66.4% [2024-08] and 75.8, 88.2, 88.7, 78.3, 93.7, 89.8 (2×), 82, 88.6, 83.8% [2024-09]

## Cc1nc(N2CCC3(CC2)COC(C)C3N)c(CO)nc1Sc1ccnc(N)c1Cl (stereo not given)
Compound alone 0.0316 µM
  viability, T/C: 114%, 86.5% [2024-08] and 103%, 111% [2024-09]
Compound alone 3.16 µM
  viability, T/C: 80.2%, 72.1% [2024-08] and 84.6%, 97.4% [2024-09]

## CC(C)NCC(C(=O)N1CCN(c2ncnc3c2C(C)CC3O)CC1)c1ccc(Cl)cc1 (stereo not given)
  IC50: 5.43 µM, > 10 µM [2024-08] and 6.31 µM, 2.8 µM [2024-09]
Compound alone 0.316 µM
  viability, T/C: 95.5%, 115% [2024-08] and 79.1%, 98% [2024-09]
Compound alone 1 µM
  viability, T/C: 84.6%, 130% [2024-08] and 88%, 74.1% [2024-09]
Compound alone 3.16 µM
  viability, T/C: 63.7%, 76.9% [2024-08] and 59.3%, 47.4% [2024-09]
Compound alone 10 µM
  viability, T/C: 34.3%, 58% [2024-08] and 41.8%, 30.8% [2024-09]

## O=C(c1ccc(F)c(F)c1Nc1ccc(I)cc1F)N1CC(O)([C@@H]2CCCCN2)C1
Compound alone 1 µM
  viability, T/C: 37.9%, 50.1% [2024-08] and 56.9%, 63.3% [2024-09]

## CCn1c(-c2cc(N3CCN(C)CC3)cnc2C(C)OC)c2c3cc(ccc31)-c1csc(n1)CC(NC(=O)C1CC1C)C(=O)N1CCCC(N1)C(=O)OCC(C)(C)C2 (stereo not given)
Compound alone 0.03 µM
  viability, T/C: 91, 93.5, 81.1, 93.9, 92.9, 71.6, 102, 101%

## CC1(O)CCCC1n1c(=O)c(C(F)F)cc2cnc(NC3CCN(S(C)(=O)=O)CC3)nc21 (stereo not given)
  IC50: 683 nM, 4.03 µM [2024-08] and 4.16 µM, 2.67 µM [2024-09]
Compound alone 0.1 µM
  viability, T/C: 75.9%, 120% [2024-08] and 94.3%, 102% [2024-09]
Compound alone 0.316 µM
  viability, T/C: 43.7%, 82% [2024-08] and 77.3%, 67.1% [2024-09]
Compound alone 1 µM
  viability, T/C: 52.5%, 73.6% [2024-08] and 79.1%, 71.3% [2024-09]
Compound alone 3.16 µM
  viability, T/C: 45.3%, 74% [2024-08] and 67.8%, 59.2% [2024-09]

## CCc1c2c(nc3ccc(O)cc13)-c1cc3c(c(=O)n1C2)COC(=O)[C@]3(O)CC
Compound alone 0.003 µM
  viability, T/C: 51.6%, 98.8% [2024-08] and 79.2%, 80.7% [2024-09]

## CC(Nc1ccc2c(c1)OCCn1cc(N3C(=O)OCC3C(F)F)nc1-2)C(N)=O (stereo not given)
  IC50: 6.42 µM, > 10 µM [2024-08] and 7.83 µM, 3.21 µM [2024-09]
Compound alone 0.1 µM
  viability, T/C: 88.8%, 101% [2024-08] and 70.1%, 83.5% [2024-09]
Compound alone 0.316 µM
  viability, T/C: 92%, 78.4% [2024-08] and 78.5%, 61.7% [2024-09]
Compound alone 3.16 µM
  viability, T/C: 61%, 89.9% [2024-08] and 60.5%, 53.6% [2024-09]
Compound alone 10 µM
  viability, T/C: 44%, 60.5% [2024-08] and 46.3%, 29.8% [2024-09]
